# Measurements from paper PMC11753436, “Functional classification of tauopathy strains reveals the role of protofilament core residues” (Science Advances, 2025).
# Molecular target: T1, Tau RD(LM)-YFP (human, UniProt P10636-8 244-375, P301L | V337M)
# T1 construct: tau repeat domain, human, residues 244 to 375, with the disease-associated mutations P301L and V337M (LM); Forms stably propagated amyloid aggregates (strains DS2-DS19) in the cell lines; DS1 is the parental line without aggregates; P301L and V337M are each disease-associated; their combination on one chain was made by people; also called tau repeat domain (244 to 375) P301L/V337M fused to eYFP; …
# Assay: FRET or BRET; FRET by flow cytometry (CFP to YFP, median fluorescence intensity of the FRET channel) in DS13 HEK293T cells that stably propagate Tau RD(LM)-YFP aggregates, transduced with lentivirus for Tau RD-CFP variants; read 24 to 72 h after transduction (scans at 48 h); cells gated for comparable YFP and CFP levels
# Conditions: partners not purified
# Sequence of Tau RD(LM)-YFP (P10636 561-692 P618L/V654M): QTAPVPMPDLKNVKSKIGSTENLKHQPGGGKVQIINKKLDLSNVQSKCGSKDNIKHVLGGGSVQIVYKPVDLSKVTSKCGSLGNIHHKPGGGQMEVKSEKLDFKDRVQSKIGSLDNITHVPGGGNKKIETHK
binder,measurement,value
"Tau RD(LM)-CFP (domain or fragment, tau repeat domain, human, […], with P301L and V337M; source: HEK293T (DS strain cells), lentiviral transduction, in cells; not shown: eCFP, C-terminal, kept) not shown",fold FRET signal over Tau RD(LM/2P),~5 fold
